# ± gives the standard error. Variants at the floor of the assay are shown more often than the library holds them.
# B1: glmS ribozyme (parent)
# chain: AUAAAAGCGCCAGAACUACAGAAAUGUAGUUGACGAGGAGGAGGUUUAUCGAAUUUUCGGCGGAUGCCUCCAAA
# What was measured:
# Conditions in all cases: with glucosamine-6-phosphate
# glucosamine-6-phosphate [1] = variants of: B1; assay: self-cleavage kobs at 40 uM GlcN6P; higher = faster cleavage; RNA array
# How it was run: (§1)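 In situ transcription by E. coli RNA polymerase produced barcoded ribozyme variants on sequenced MiSeq chips, and a hybridised Cy3 probe tracked them at 37 °C. Glucosamine-6-phosphate was flowed in at 40 μM to 10 mM in HEPES/KCl/Mg(OAc)2 buffer. kcat and KM were taken from weighted Michaelis–Menten fits of kobs values from exponential decay fits.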
# glucosamine-6-phosphate [2] = variants of: B1; assay: self-cleavage kobs at 10000 uM GlcN6P; higher = faster cleavage; RNA array
# How it was run: as §1
# glucosamine-6-phosphate [3] = variants of: B1; assay: self-cleavage kobs at 640 uM GlcN6P; higher = faster cleavage; RNA array
# How it was run: as §1
# glucosamine-6-phosphate [4] = variants of: B1; assay: self-cleavage kobs at 160 uM GlcN6P; higher = faster cleavage; RNA array
# How it was run: as §1
# glucosamine-6-phosphate [5] = variants of: B1; assay: self-cleavage kobs at 2500 uM GlcN6P; higher = faster cleavage; RNA array
# How it was run: as §1
Variant,self-cleavage kobs at 40 uM GlcN6P (glucosamine-6-phosphate [1]) [s⁻¹],self-cleavage kobs at 10000 uM GlcN6P (glucosamine-6-phosphate [2]) [s⁻¹],self-cleavage kobs at 640 uM GlcN6P (glucosamine-6-phosphate [3]) [s⁻¹],self-cleavage kobs at 160 uM GlcN6P (glucosamine-6-phosphate [4]) [s⁻¹],self-cleavage kobs at 2500 uM GlcN6P (glucosamine-6-phosphate [5]) [s⁻¹]
U49C C71U,< 1e-05,< 1e-05,–,–,–
A6G G32A G38A U46C G51A,–,–,< 1e-05,–,–
U49G A52C,< 1e-05,< 1e-05,< 1e-05,< 1e-05,–
C8A C16U G59C,–,–,< 1e-05,–,< 1e-05
C10A C16U G35A,–,–,< 1e-05,–,< 1e-05
G7U U65G,–,< 1e-05,< 1e-05,–,< 1e-05
C10A G29A A64U,–,–,< 1e-05,–,< 1e-05
U49A A53U C61U C71U,< 1e-05,< 1e-05,–,–,–
C8U C11G U31A,–,–,< 1e-05,–,–
U57C G66C,< 1e-05,–,< 1e-05,–,–
A6G G40U G41U,–,–,< 1e-05,–,< 1e-05
C8A G29U,–,< 1e-05,< 1e-05,< 1e-05,< 1e-05
G7U A48G,–,–,< 1e-05,–,–
U56C G60A,< 1e-05,–,< 1e-05,< 1e-05,–
C50U U65C,< 1e-05,< 1e-05,< 1e-05,–,–
A52U C58U,< 1e-05,< 1e-05,< 1e-05,< 1e-05,< 1e-05
C8G A12C G37A,–,–,< 1e-05,–,< 1e-05
U46A U69A,< 1e-05,–,–,–,–
G9A G38U U46C G62U A64U,–,–,< 1e-05,–,–
C11A G43C C61G,–,–,< 1e-05,< 1e-05,< 1e-05
G7U G9U U31A G37A A52C C67U U69C,–,–,< 1e-05,–,–
A52U G63A,< 1e-05,< 1e-05,< 1e-05,< 1e-05,< 1e-05
G9C A64G C71A,–,–,< 1e-05,–,< 1e-05

Variant,self-cleavage kobs at 40 uM GlcN6P (glucosamine-6-phosphate [1]) [s⁻¹],self-cleavage kobs at 10000 uM GlcN6P (glucosamine-6-phosphate [2]) [s⁻¹],self-cleavage kobs at 640 uM GlcN6P (glucosamine-6-phosphate [3]) [s⁻¹],self-cleavage kobs at 160 uM GlcN6P (glucosamine-6-phosphate [4]) [s⁻¹],self-cleavage kobs at 2500 uM GlcN6P (glucosamine-6-phosphate [5]) [s⁻¹]
G9A C16U G44U,–,–,< 1e-05,–,< 1e-05
U47C C61A,< 1e-05,< 1e-05,–,< 1e-05,< 1e-05
C10G G37C G43A,–,–,< 1e-05,–,–
C10U G35U G59U,–,–,< 1e-05,–,–
A48U C61G,< 1e-05,< 1e-05,< 1e-05,< 1e-05,< 1e-05
A6U C10G A39U G60C C68G,–,–,< 1e-05,–,–
C8U C10G G29C U31C G51U,–,–,< 1e-05,–,< 1e-05
C8A G29A G41U G44U U57C,–,–,< 1e-05,–,–
G7U U30A G59A,–,–,< 1e-05,–,< 1e-05
A6G A33U C68A,–,< 1e-05,< 1e-05,< 1e-05,< 1e-05
A6C G7C A36C U55C C58A,–,–,< 1e-05,–,–
C10U U49A G51A A53C,–,–,< 1e-05,< 1e-05,–
A53G C61G,< 1e-05,–,–,–,–
C58U G62C U65G,< 1e-05,–,–,–,–
U46A U47C,5.61e-05 ± 1.2e-05,–,–,–,–
A6U C61U G63U,–,–,< 1e-05,–,–
G59C G60U G62U,< 1e-05,< 1e-05,< 1e-05,–,< 1e-05
U46C G51A,< 1e-05,< 1e-05,< 1e-05,< 1e-05,< 1e-05
G62U G63A,< 1e-05,< 1e-05,< 1e-05,< 1e-05,< 1e-05
A48G G62U,< 1e-05,< 1e-05,–,–,–
G51U G59C,< 1e-05,< 1e-05,–,–,< 1e-05
U54A C70G,6.49e-05 ± 8.1e-06,0.000131 ± 1.5e-05,0.00033 ± 5.7e-05,6.78e-05 ± 1e-05,0.000176 ± 2.2e-05
C8U G44U A48C,–,–,< 1e-05,–,< 1e-05

Variant,self-cleavage kobs at 40 uM GlcN6P (glucosamine-6-phosphate [1]) [s⁻¹],self-cleavage kobs at 10000 uM GlcN6P (glucosamine-6-phosphate [2]) [s⁻¹],self-cleavage kobs at 640 uM GlcN6P (glucosamine-6-phosphate [3]) [s⁻¹],self-cleavage kobs at 160 uM GlcN6P (glucosamine-6-phosphate [4]) [s⁻¹],self-cleavage kobs at 2500 uM GlcN6P (glucosamine-6-phosphate [5]) [s⁻¹]
G51C C71G,< 1e-05,–,–,–,–
C10U G35U A64U,–,–,< 1e-05,–,< 1e-05
G63U A64U,< 1e-05,–,< 1e-05,< 1e-05,< 1e-05
C10G A12U G62A,–,< 1e-05,< 1e-05,< 1e-05,< 1e-05
C10U G43C G51U C70G,–,–,< 1e-05,< 1e-05,< 1e-05
A6U A14C G51A,–,–,< 1e-05,< 1e-05,–
C8A C10A G29C U31G G37A U46C,–,–,< 1e-05,< 1e-05,< 1e-05
A48C A53U,< 1e-05,0.000191 ± 3e-05,4.84e-05 ± 1.1e-05,–,0.000131 ± 2e-05
A6C G9C U55C,–,–,< 1e-05,< 1e-05,< 1e-05
G59U C61G U65A U69G,< 1e-05,–,–,–,–
G7A C16G A48U G60C C70A,–,–,< 1e-05,–,< 1e-05
A6U C8U G41C,–,–,< 1e-05,< 1e-05,< 1e-05
G9A G63U,–,–,< 1e-05,–,< 1e-05
C8G G51C U69A C70U,–,–,< 1e-05,–,< 1e-05
C50A G60U C68G,< 1e-05,–,–,–,–
A53U G59A,< 1e-05,–,–,–,–
G7U G35U A53G,–,–,< 1e-05,–,–
A6G A14G C67G C71A,–,–,< 1e-05,–,–
A6G G29A U30G G40A U54C,–,–,< 1e-05,–,–
U49G A64C,< 1e-05,–,< 1e-05,–,< 1e-05
G7U U56A G59U,–,–,< 1e-05,–,–
C10G G40U C67U,–,–,< 1e-05,–,–
A6U C34A G63C,–,–,< 1e-05,< 1e-05,< 1e-05

Variant,self-cleavage kobs at 40 uM GlcN6P (glucosamine-6-phosphate [1]) [s⁻¹],self-cleavage kobs at 10000 uM GlcN6P (glucosamine-6-phosphate [2]) [s⁻¹],self-cleavage kobs at 640 uM GlcN6P (glucosamine-6-phosphate [3]) [s⁻¹],self-cleavage kobs at 160 uM GlcN6P (glucosamine-6-phosphate [4]) [s⁻¹],self-cleavage kobs at 2500 uM GlcN6P (glucosamine-6-phosphate [5]) [s⁻¹]
G9U G40A C61G,–,–,< 1e-05,–,–
G7C U54G,–,–,< 1e-05,< 1e-05,–
A6C G38C U47C,–,–,< 1e-05,–,< 1e-05
G7U A12G A48U G63U,–,–,< 1e-05,–,–
U47A U54G,0.0005 ± 0.00016,–,0.0103 ± 0.0034,–,0.00345 ± 0.0016
G51C A52U,< 1e-05,–,–,–,–
C8A A42U U56C,–,–,< 1e-05,–,–
A6C C58G A64G,–,–,< 1e-05,–,–
G9U A14G G60C G63C,–,–,< 1e-05,–,< 1e-05
C8U C11G G41A A52G G60U G63A,–,–,< 1e-05,< 1e-05,–
G7C A15U G29U G51U,–,–,< 1e-05,< 1e-05,< 1e-05
G9U C10U G35C,–,–,< 1e-05,–,–
U49C C67U,< 1e-05,< 1e-05,< 1e-05,–,–
U55C U57A C68A,< 1e-05,–,–,–,–
U54G U56C,6.58e-05 ± 1.3e-05,0.00518 ± 0.0011,0.000986 ± 0.00024,0.000146 ± 2.8e-05,0.00123 ± 0.00029
C8A C16A G32C A42G,–,–,< 1e-05,–,–
A53U A64C,< 1e-05,–,–,–,–
A6G A33C C34A G38A G43C,–,–,< 1e-05,–,–
G9U A14U G35A,–,–,< 1e-05,< 1e-05,< 1e-05
C10U A39U C67G,–,–,< 1e-05,< 1e-05,–
G51U G63U,< 1e-05,< 1e-05,< 1e-05,< 1e-05,–
G60U C68A,< 1e-05,< 1e-05,< 1e-05,< 1e-05,< 1e-05
A6G A14U U55C C58G C68A,–,–,< 1e-05,< 1e-05,–

Variant,self-cleavage kobs at 40 uM GlcN6P (glucosamine-6-phosphate [1]) [s⁻¹],self-cleavage kobs at 10000 uM GlcN6P (glucosamine-6-phosphate [2]) [s⁻¹],self-cleavage kobs at 640 uM GlcN6P (glucosamine-6-phosphate [3]) [s⁻¹],self-cleavage kobs at 160 uM GlcN6P (glucosamine-6-phosphate [4]) [s⁻¹],self-cleavage kobs at 2500 uM GlcN6P (glucosamine-6-phosphate [5]) [s⁻¹]
G9U C16A G38U,–,–,< 1e-05,–,< 1e-05
C58G G63U,< 1e-05,–,–,–,–
G9U A22C,–,–,< 1e-05,–,–
C8G A42U U46A A53U,–,–,< 1e-05,–,–
G7A C61A C68U,–,–,< 1e-05,–,–
G9A G32C C67U,–,–,< 1e-05,< 1e-05,–
A64G G66A,0.000837 ± 9.3e-05,0.0215 ± 0.0052,0.00554 ± 0.0008,0.00197 ± 0.00028,0.0124 ± 0.0025
C10G A48G,–,< 1e-05,< 1e-05,–,< 1e-05
C8A U30G G40C,–,–,< 1e-05,–,< 1e-05
C10A A14G G35A A52U,–,–,< 1e-05,–,< 1e-05
A6C A39G U57G,–,–,< 1e-05,–,< 1e-05
G7U A14U G44U,–,–,< 1e-05,–,–
U55C G62C,< 1e-05,< 1e-05,< 1e-05,–,–
A6U C10A G51U,–,–,< 1e-05,–,< 1e-05
C11A A52U C58G,–,–,< 1e-05,–,< 1e-05
G7C C8A C71U,–,–,< 1e-05,–,–
G9C G35U C50U A64C,–,–,< 1e-05,–,–
A6G U55G,–,0.000473 ± 7.8e-05,0.000133 ± 3.4e-05,–,0.000299 ± 5.2e-05
G7A C11A A39G U45C,–,–,< 1e-05,–,–

# — the supplement of paper PMC7125110
